From paper PMC4336329 (PLoS ONE, 2015)
Out of some 310,000 compounds screened, about 14,000 (4.5%) showed an effect of 50% or more. The effect is printed as a negative number. Some of the results follow.

The compounds below were run against human ether-à-go-go-related gene (hERG) potassium channel (human, UniProt Q12809) (assay: primary screen, population patch clamp on CHO cells stably expressing hERG).
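Also: peak tail current of the secondary pulse compared with the same well before compound.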

Sequence of human ether-à-go-go-related gene (hERG) potassium channel (Q12809 whole entry, looked up): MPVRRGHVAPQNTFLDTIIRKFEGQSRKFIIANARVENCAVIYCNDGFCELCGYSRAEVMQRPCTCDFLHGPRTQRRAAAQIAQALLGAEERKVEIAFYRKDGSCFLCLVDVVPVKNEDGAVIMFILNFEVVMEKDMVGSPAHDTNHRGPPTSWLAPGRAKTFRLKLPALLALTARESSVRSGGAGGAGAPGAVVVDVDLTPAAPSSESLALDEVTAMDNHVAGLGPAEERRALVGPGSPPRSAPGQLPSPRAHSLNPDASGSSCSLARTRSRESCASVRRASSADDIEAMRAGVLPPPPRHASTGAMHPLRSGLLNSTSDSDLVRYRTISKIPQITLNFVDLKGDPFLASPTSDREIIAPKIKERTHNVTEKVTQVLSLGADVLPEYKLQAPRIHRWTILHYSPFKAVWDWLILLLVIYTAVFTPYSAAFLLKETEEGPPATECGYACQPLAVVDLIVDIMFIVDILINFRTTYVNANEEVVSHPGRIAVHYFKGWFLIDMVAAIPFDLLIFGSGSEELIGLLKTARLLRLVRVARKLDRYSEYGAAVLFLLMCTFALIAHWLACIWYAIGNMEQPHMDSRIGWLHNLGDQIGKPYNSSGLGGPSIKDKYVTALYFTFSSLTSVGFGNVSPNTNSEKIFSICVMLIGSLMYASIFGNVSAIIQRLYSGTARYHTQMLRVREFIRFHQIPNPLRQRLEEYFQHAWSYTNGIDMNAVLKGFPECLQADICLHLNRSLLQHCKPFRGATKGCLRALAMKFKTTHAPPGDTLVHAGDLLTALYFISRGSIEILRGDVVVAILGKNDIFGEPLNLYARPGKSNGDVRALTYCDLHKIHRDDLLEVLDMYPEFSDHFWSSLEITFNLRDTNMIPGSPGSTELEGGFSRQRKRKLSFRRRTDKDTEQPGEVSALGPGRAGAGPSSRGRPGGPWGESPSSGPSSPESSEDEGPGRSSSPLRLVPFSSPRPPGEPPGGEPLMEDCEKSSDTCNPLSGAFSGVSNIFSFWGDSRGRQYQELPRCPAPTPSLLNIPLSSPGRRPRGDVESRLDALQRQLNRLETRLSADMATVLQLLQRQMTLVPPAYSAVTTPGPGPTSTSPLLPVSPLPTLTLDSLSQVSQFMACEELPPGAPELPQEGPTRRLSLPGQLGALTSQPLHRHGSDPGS

Structure (SMILES) | hERG current change (%, negative = inhibition) at 10uM [%]
Br.O=[N+]([O-])c1cccc(-c2csc(Nc3ccccc3)n2)c1 | 13.5
COc1cc(NS(=O)(=O)c2ccc(C)cc2C)cc(OC)c1OC | -10.4
CSc1nc(O)c(N=Nc2ccc(F)cc2F)c(=O)[nH]1 | -4.9
Cc1cc(OC(=O)c2c(Cl)cc(Cl)cc2Cl)nc(C)n1 | -13.6
Cc1nc(SCc2ccccc2)c2ccsc2n1 | 3.5
CCC1COCCS(=O)(=O)N1Cc1ccc(F)cc1 (stereo not drawn) | -7.51
COc1ccc(/C=C(\C#N)c2c[nH]c3ccccc23)cc1 | 9.93
O=C(c1cc([N+](=O)[O-])ccc1N1CCN(S(=O)(=O)c2ccc(Cl)c(Cl)c2)CC1)N1CCOCC1 | -52.4
Cc1ccc(CN(C)C(=O)CC2C(=O)NCCN2CC2CCCCC2)cc1 (stereo not drawn) | 0.467
Cc1ccc(NC(=O)c2cnccn2)c(C)c1 | 13.3
CCCNC(=O)CSc1nc(-c2cccs2)cc(C(F)(F)F)n1 | -17
CC(=O)Nc1ccc(S(=O)(=O)NNC(=O)c2cccc(Br)c2)cc1 | 15.9
Cc1cc2c(ncn2C)c(NS(=O)(=O)c2cc(Cl)ccc2Cl)c1C | -14.4
Cc1ccc(-n2nc(C)c3c2NC2=C(C(=O)CC(C)(C)C2)C3c2ccccc2OCC(=O)O)cc1 (stereo not drawn) | 17.8
CCc1ccc(OCC(=O)NNC(=O)c2cc3ccccc3o2)cc1 | 14
CC1CCN(c2c(NCc3ccc(C(=O)N4CCc5ccccc54)cc3)c(=O)c2=O)CC1 | 0.15
COc1ccc(N(CC(=O)NCCSC2CCCCC2)S(=O)(=O)c2ccccc2)cc1OC | -1.85
O=C(Cc1ccccc1)n1nc(-c2ccccc2)nc1NCc1ccco1 | -16.9
O=C(O)CS(=O)CC(=O)Nc1cccc(C(F)(F)F)c1 (stereo not drawn) | 7.09

Structure (SMILES) | hERG current change (%, negative = inhibition) at 10uM [%]
Cn1nc(C(=O)NCC2COc3ccccc3O2)c2ccccc2c1=O (stereo not drawn) | -29.1
CCc1ccc([C@@H]2CC=C(C(=O)O)[C@H](c3ccccc3F)N2S(=O)(=O)c2ccc(C)cc2)cc1 | 11.1
COc1ccc2c(=O)c(-c3ccccc3)c(C)oc2c1 | -11.9
CC(C)C(=O)Nc1c2c(nn1-c1ccc([N+](=O)[O-])cc1)CS(=O)(=O)C2 | 11.6
Clc1ncccc1-c1nnn(-c2ccccc2Br)n1 | 2.49
O=C(COc1ccccc1)Nc1ccc(N2CCCCC2)cc1 | 10
Cc1oc2ccccc2c1CC(=O)NCCCN(C)C | 6.48
O=C(NCc1ccco1)C1CC(=O)N(c2ccc(O)cc2)C1 (stereo not drawn) | -10.2
Cc1ccc(-n2nnnc2SCC(=O)NC(=O)Nc2ccc3c(c2)OCCO3)cc1 | 27.1
Cc1csc(NC(=O)CCc2nc3ccccc3s2)n1 | -3.58
CC(C)(C)c1nc(SCC(=O)Nc2nc3c(s2)CCCC3)c2ccccc2n1 | 12.7
CCc1ccc2c(c1)C(c1ccncc1)=NNC(c1ccccc1)=N2 | 0.537
CCOc1ccc2nc(SCC(=O)N3CCN(C(=O)c4ccco4)CC3)sc2c1 | -66.2
O=c1onc(-c2ccccc2)c2ccccc12 | 6.55
COc1ccc(Br)c(C(=O)OCc2cc(=O)oc3cc(C)ccc23)c1 | 6.38
COCc1c(C(=O)N/N=C\c2cccs2)nnn1-c1nonc1N | 18.6
O=C(O)CC(O)(CC(=O)O)C(=O)O | 4.16
Cc1ccc(NC(=O)[C@@]2(CC(=O)O)CC(/C=C/c3ccccc3)=NO2)c(C)c1 | 18.6
CC(C)(C)c1cc(NCCCn2ccnc2)n2ncc(-c3ccc(Cl)cc3)c2n1 | 12.1

Structure (SMILES) | hERG current change (%, negative = inhibition) at 10uM [%]
C/C(=C\C(=O)c1ccc(Cl)s1)N(C)C | 3.3
CC(C)n1ncc2c(C(=O)O)cc(C3CC3)nc21 | -4.71
C=CCOC(=O)C1=C(C)OC(N)=C(C#N)C12C(=O)N(CN1CCOCC1)c1ccccc12 (stereo not drawn) | -1.58
Cc1ccc(S(=O)(=O)CCC(=O)OCC(=O)N2c3ccccc3CC2C)cc1 (stereo not drawn) | 13
O=C(NCc1ccccc1Cl)C(=O)NCC1CCCN1S(=O)(=O)c1cccs1 (stereo not drawn) | -20
O=[N+]([O-])c1ccccc1S(=O)(=O)Oc1ccccc1/C=N/n1cnnc1 | -16.9
O=C(c1cccc(Oc2ccc([N+](=O)[O-])cc2)c1)N1CCOCC1 | -34.3
CCOCCN1CCN(c2c(CC)c(C)nc3cc(-c4cc(OC)cc(OC)c4)nn23)CC1 | -72.4
O=C(c1ccc(CS(=O)(=O)Cc2ccc(Cl)cc2)o1)N1CCCC1 | -19
O=C(O)CCC(=O)Nc1cccc(-c2nnc(-c3ccccc3)o2)c1 | 18.9
Brc1ccccc1-c1nc(-c2ccccc2)no1 | 5.04
O=C(CSc1cn[nH]n1)Nc1nc2ccccc2s1 | 1.49
O=[N+]([O-])c1ccc(S(=O)(=O)Nc2ncccn2)cc1 | 20.3
CCN1CCN(C(c2cccs2)C(C)NC(=O)c2ccccc2OC)CC1 (stereo not drawn) | -28.9
COc1ccc(C(=O)N/N=C/c2c(C)nn(-c3ccccc3)c2OC)cc1 | -10
Cc1ccc(OC(=S)Nc2ccc(F)cc2)cc1 | 7.01
Cc1cc(NC(=O)CSc2nnc(-c3cccc(F)c3)n2N)no1 | 27.6
CCN(CC)CCSc1nnc2c3cc(F)ccc3n(Cc3ccccc3)c2n1 | -77
COC(=O)C1CCN(C(=O)c2ccc(Cl)c(S(=O)(=O)NCc3cccnc3)c2)CC1 | 13
